Data from publication PMC4336329 (PLoS ONE, 2015).
About 14,000 (4.5%) of roughly 310,000 compounds showed an effect of 50% or more. The effect is printed as a negative number. The list shows a part of the results.

Molecular target: human ether-à-go-go-related gene (hERG) potassium channel (human, UniProt Q12809)
Test: primary screen, population patch clamp on CHO cells stably expressing hERG
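Also: peak tail current of the secondary pulse compared with the same well before compound.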

human ether-à-go-go-related gene (hERG) potassium channel, sequence (Q12809 whole entry, looked up): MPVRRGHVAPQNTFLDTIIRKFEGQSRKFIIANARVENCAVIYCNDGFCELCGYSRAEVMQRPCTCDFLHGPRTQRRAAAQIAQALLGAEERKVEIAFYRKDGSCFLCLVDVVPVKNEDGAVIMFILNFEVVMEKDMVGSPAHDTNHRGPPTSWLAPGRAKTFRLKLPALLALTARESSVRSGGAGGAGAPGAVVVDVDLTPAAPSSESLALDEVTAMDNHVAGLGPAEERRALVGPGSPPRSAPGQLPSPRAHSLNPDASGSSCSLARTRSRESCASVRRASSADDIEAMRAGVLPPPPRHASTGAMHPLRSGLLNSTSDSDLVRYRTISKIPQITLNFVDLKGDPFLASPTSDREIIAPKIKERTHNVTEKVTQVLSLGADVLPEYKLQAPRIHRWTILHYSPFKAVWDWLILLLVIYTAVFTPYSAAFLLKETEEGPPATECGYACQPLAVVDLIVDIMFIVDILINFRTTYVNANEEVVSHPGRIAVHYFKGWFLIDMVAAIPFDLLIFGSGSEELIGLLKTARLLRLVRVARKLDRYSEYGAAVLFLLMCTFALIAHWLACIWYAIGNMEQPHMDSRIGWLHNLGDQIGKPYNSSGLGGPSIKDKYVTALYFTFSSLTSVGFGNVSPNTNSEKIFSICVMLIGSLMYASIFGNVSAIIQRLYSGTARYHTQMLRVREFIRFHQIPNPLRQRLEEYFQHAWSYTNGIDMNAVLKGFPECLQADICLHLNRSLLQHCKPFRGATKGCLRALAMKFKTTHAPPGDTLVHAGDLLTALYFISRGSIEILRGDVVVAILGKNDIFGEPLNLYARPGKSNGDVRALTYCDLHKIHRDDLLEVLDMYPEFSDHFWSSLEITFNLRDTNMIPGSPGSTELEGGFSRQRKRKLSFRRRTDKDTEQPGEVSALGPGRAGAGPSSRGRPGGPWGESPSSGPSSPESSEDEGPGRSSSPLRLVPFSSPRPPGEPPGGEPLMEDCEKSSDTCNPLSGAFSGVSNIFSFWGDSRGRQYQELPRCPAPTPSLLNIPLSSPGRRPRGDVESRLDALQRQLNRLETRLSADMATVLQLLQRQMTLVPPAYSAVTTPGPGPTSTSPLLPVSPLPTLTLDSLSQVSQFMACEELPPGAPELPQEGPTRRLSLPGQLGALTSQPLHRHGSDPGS

How did the “hERG current change (%, negative = inhibition) at 10uM” value turn out when Cc1ccc(S(=O)(=O)Nc2cc(C(=O)N3CCC4(CC3)OCCO4)ccc2N2CCCCC2)cc1 was run?
The value was -51.3%.

How did the “hERG current change (%, negative = inhibition) at 10uM” value turn out when CCNC(=S)N1CCNC(=O)C1CC(=O)OC (stereo not drawn) was run?
The value was -1.54%.

How did the “hERG current change (%, negative = inhibition) at 10uM” value turn out when Cc1ccccc1OCC(O)CN1CCN(C)CC1.Cl (stereo not drawn) was run?
Its value is -0.704%.

For Cc1cc2cc(CN(Cc3cccs3)C(=S)NCC3CCCO3)c(=O)[nH]c2cc1C (stereo not drawn), which “hERG current change (%, negative = inhibition) at 10uM” value is on record?
The value was -3.08%.

With c1ccc(N2CCN(c3nc(-c4ccccn4)nc4ccccc34)CC2)cc1 as the compound, how does the “hERG current change (%, negative = inhibition) at 10uM” value read?
The value was -73.9%.

How did the “hERG current change (%, negative = inhibition) at 10uM” value turn out when Cn1c(Nc2ccccc2)nc2ccccc21 was run?
Its value is 1.74%.

Which “hERG current change (%, negative = inhibition) at 10uM” value does the source give for O=C1CC(SCc2nc3ccccc3[nH]2)C(=O)N1c1ccc(Cl)cc1 (stereo not drawn) here?
Its value is -18.7%.

With CCc1ccccc1NC(=O)CCN1C(=O)c2ccccc2C1=O as the compound, how does the “hERG current change (%, negative = inhibition) at 10uM” value read?
Its value is 8.21%.

Which “hERG current change (%, negative = inhibition) at 10uM” value does the source give for CC(NC(=O)c1ccc([N+](=O)[O-])cc1[N+](=O)[O-])c1ccc(-c2ccccc2)cc1 (stereo not drawn) here?
Its value is -1.64%.

CCOC(=O)C(=CNc1ccc(OC)cc1[N+](=O)[O-])C(=O)OCC was tested. Which “hERG current change (%, negative = inhibition) at 10uM” value did it give?
The value was 10.5%.

CN1CCn2c1nc(N1CCOCC1)nc2=O was tested. Which “hERG current change (%, negative = inhibition) at 10uM” value did it give?
Its value is 0.997%.

Fc1ccc(-n2c(-c3cc(C4CC4)[nH]n3)n[nH]c2=S)cc1Cl was tested. Which “hERG current change (%, negative = inhibition) at 10uM” value did it give?
The value was 11.8%.

Which “hERG current change (%, negative = inhibition) at 10uM” value does the source give for CCN(CC)S(=O)(=O)c1ccc(Br)c(OC)c1 here?
The value was -11.2%.

How did the “hERG current change (%, negative = inhibition) at 10uM” value turn out when Cc1cccc(C)c1NC(=O)c1ccc(-n2cnnn2)cc1 was run?
Its value is -44.2%.

How did the “hERG current change (%, negative = inhibition) at 10uM” value turn out when Cc1ccccc1NC(=O)c1cccc(S(=O)(=O)Oc2ccc([N+](=O)[O-])cc2)c1 was run?
Its value is -24.5%.

For N#C/C(=C\c1ccc(O)cc1)C(=O)NCc1cccc(Cl)c1, which “hERG current change (%, negative = inhibition) at 10uM” value is on record?
The value was 25.3%.

O=C(N1CCOCC1)N1CCOCC1 was tested. Which “hERG current change (%, negative = inhibition) at 10uM” value did it give?
Its value is -21.7%.

Which “hERG current change (%, negative = inhibition) at 10uM” value does the source give for C=CCn1c(SCC(=O)Nc2ccc(-c3nc4ccc(C)cc4s3)cc2)nnc1-c1ccccc1 here?
Its value is -3.04%.

For Cc1ccc(OC(=O)c2cccc(S(=O)(=O)N3CCCC3)c2)c(-n2nc3ccccc3n2)c1, which “hERG current change (%, negative = inhibition) at 10uM” value is on record?
Its value is 7.11%.

How did the “hERG current change (%, negative = inhibition) at 10uM” value turn out when CCCCOC(=O)n1ccc(C(=O)Nc2ccccc2OC)n1 was run?
Its value is -38.5%.

O=C(Cc1ccc(-n2c(=O)[nH]c3ccsc3c2=O)cc1)N1CCN(c2ccc(Cl)cc2)CC1 was tested. Which “hERG current change (%, negative = inhibition) at 10uM” value did it give?
The value was 31%.

CCCCNC(=O)CN(c1ccc(Cl)c(Cl)c1)S(C)(=O)=O was tested. Which “hERG current change (%, negative = inhibition) at 10uM” value did it give?
The value was 8.64%.

For CCC1C(=O)CC(c2ccco2)NC1c1ccco1 (stereo not drawn), which “hERG current change (%, negative = inhibition) at 10uM” value is on record?
The value was 5.53%.

With COc1ccc2nc(NC(=O)c3cc(S(=O)(=O)N4CCOCC4)ccc3C)sc2c1 as the compound, how does the “hERG current change (%, negative = inhibition) at 10uM” value read?
Its value is 1.72%.

Which “hERG current change (%, negative = inhibition) at 10uM” value does the source give for CCC(NC(=O)c1cccc(Cn2nc(C)c([N+](=O)[O-])c2C)c1)c1ccc(C(C)C)cc1 (stereo not drawn) here?
The value was -0.782%.

Which “hERG current change (%, negative = inhibition) at 10uM” value does the source give for CCOC(=O)C1(Cc2ccccc2C)CCCN(C(=O)c2ccc3nccnc3c2)C1 (stereo not drawn) here?
Its value is 9.72%.

For CC(Oc1ccc(Cl)cc1Cl)c1nc(-c2ccc(NC(=O)c3ccncc3)cc2)no1 (stereo not drawn), which “hERG current change (%, negative = inhibition) at 10uM” value is on record?
Its value is 2.89%.

With CCOc1ccccc1NC(=O)COC(=O)Cc1cccs1 as the compound, how does the “hERG current change (%, negative = inhibition) at 10uM” value read?
The value was 18.5%.

For Cc1cc(-c2nnc(CCC(=O)NCc3ccc(OC(F)(F)F)cc3)o2)no1, which “hERG current change (%, negative = inhibition) at 10uM” value is on record?
The value was 3.05%.

How did the “hERG current change (%, negative = inhibition) at 10uM” value turn out when CC1CCCN(c2ccc(C(=O)NCC3CCCO3)cn2)C1 (stereo not drawn) was run?
Its value is -8.01%.

For Cc1ccc(S(=O)(=O)N(CC(=O)NCC2CCCO2)c2cccc([N+](=O)[O-])c2)cc1 (stereo not drawn), which “hERG current change (%, negative = inhibition) at 10uM” value is on record?
The value was -34.5%.

Cc1ccc(S(=O)(=O)c2nc(-c3ccccc3)oc2SCC(=O)NCC2CCCO2)cc1 (stereo not drawn) was tested. Which “hERG current change (%, negative = inhibition) at 10uM” value did it give?
Its value is 8.99%.

Which “hERG current change (%, negative = inhibition) at 10uM” value does the source give for CCc1ccc(CN(C)C(=O)C2CCC(=O)N(CCCN3CCCC3=O)C2)cc1 (stereo not drawn) here?
Its value is -3.87%.

How did the “hERG current change (%, negative = inhibition) at 10uM” value turn out when COC(=O)/C(C#N)=C/c1c[nH]c2ccccc12 was run?
Its value is 19.6%.

Which “hERG current change (%, negative = inhibition) at 10uM” value does the source give for Cc1nnsc1C(=O)N1CCN(c2ccc(F)cc2)CC1 here?
Its value is 1.36%.

How did the “hERG current change (%, negative = inhibition) at 10uM” value turn out when CCCNC(=O)[C@H]1N2C(=O)c3c(ccc(OC)c3OC)C2SC1(C)C (stereo partly drawn) was run?
Its value is 16.4%.

COc1ccc(-c2cn3c(C)c(C(=O)NCCN4CCOCC4)sc3n2)cc1 was tested. Which “hERG current change (%, negative = inhibition) at 10uM” value did it give?
Its value is -41.1%.

Which “hERG current change (%, negative = inhibition) at 10uM” value does the source give for O=C(c1ccc(-c2ccc(Cl)cc2Cl)o1)N1CCOCC1 here?
The value was -30.4%.

How did the “hERG current change (%, negative = inhibition) at 10uM” value turn out when CCOC(=O)c1cn(CC)c2cc(N3CCOCC3)c(F)cc2c1=O was run?
Its value is 9.69%.

Which “hERG current change (%, negative = inhibition) at 10uM” value does the source give for O=C(Nc1ncc2c(n1)-c1ccccc1OC2)c1ccc(Cl)cc1 here?
Its value is -9.77%.

How did the “hERG current change (%, negative = inhibition) at 10uM” value turn out when c1ccc(COc2ccc(OCCn3cncn3)cc2)cc1 was run?
The value was 4.65%.

Which “hERG current change (%, negative = inhibition) at 10uM” value does the source give for COc1ccc(CC(=O)NCCS(=O)(=O)N2CCN(c3ccccc3OC)CC2)cc1 here?
Its value is -17.1%.

With COc1ccc(NC(=O)CCN2C(=O)c3ccccc3S2(=O)=O)cc1 as the compound, how does the “hERG current change (%, negative = inhibition) at 10uM” value read?
Its value is -6.9%.

For O=C(/C=C/c1ccccc1)NC(=S)Nc1ccccc1O, which “hERG current change (%, negative = inhibition) at 10uM” value is on record?
Its value is 14.1%.

With CCCCNC(=S)NNC(=O)c1nn(C)cc1Cl as the compound, how does the “hERG current change (%, negative = inhibition) at 10uM” value read?
Its value is 14.1%.

With COc1ccc(N2CCN(Cc3csc(C)c3-c3ccc(C)cc3)CC2)cc1 as the compound, how does the “hERG current change (%, negative = inhibition) at 10uM” value read?
The value was 10.6%.

CC(C)N1CCC(N2CCN(Cc3ccc(-c4ccc(Cl)cc4)o3)CC2CCO)CC1 (stereo not drawn) was tested. Which “hERG current change (%, negative = inhibition) at 10uM” value did it give?
Its value is -64.5%.

For Cc1cc(N2CCN(S(=O)(=O)c3ccc(Cl)c(Cl)c3)CC2)c2ccccc2n1, which “hERG current change (%, negative = inhibition) at 10uM” value is on record?
The value was -45.3%.

Which “hERG current change (%, negative = inhibition) at 10uM” value does the source give for O=C(O)CCc1nnc(SCC(=O)Nc2ccc(Br)cc2)[nH]c1=O here?
The value was 19.4%.

With CC(=O)N1CCc2c(sc(NC(=O)CN3C(=O)CCC3=O)c2C(N)=O)C1 as the compound, how does the “hERG current change (%, negative = inhibition) at 10uM” value read?
The value was -2.73%.

For COc1ccc(S(=O)(=O)N2CCCCCC2)cc1C(=O)OCC(=O)NCC(C)C, which “hERG current change (%, negative = inhibition) at 10uM” value is on record?
Its value is -42.5%.

Which “hERG current change (%, negative = inhibition) at 10uM” value does the source give for Cc1ccc2c(c1)c1c3n2CCCN(Cc2ccccc2)C3CCC1 (stereo not drawn) here?
The value was -3.24%.

Which “hERG current change (%, negative = inhibition) at 10uM” value does the source give for COc1cccc(OCc2cc(C(=O)N3CCNC(=O)C3Cc3ccccc3)no2)c1 (stereo not drawn) here?
The value was 0.349%.

With COc1ccc(C(=O)NCC2CCCO2)cc1 (stereo not drawn) as the compound, how does the “hERG current change (%, negative = inhibition) at 10uM” value read?
Its value is 1.17%.

For COc1cc(OC)c(C(=O)NCc2ccco2)cc1OC, which “hERG current change (%, negative = inhibition) at 10uM” value is on record?
The value was 15.3%.

For CC(C)(C)n1cnc2cc(NC(=O)c3cccs3)ccc21, which “hERG current change (%, negative = inhibition) at 10uM” value is on record?
Its value is -13.9%.

How did the “hERG current change (%, negative = inhibition) at 10uM” value turn out when CCN1C=CC2=C(C#N)C(N)C(C#N)(C#N)C(c3ccccc3C(F)(F)F)C2C1 (stereo not drawn) was run?
The value was -5.37%.
